From PubChem BioAssay AID1347165 (National Center for Advancing Translational Sciences (NCATS), 2019)
In all, about 220,000 compounds went through this assay and about 5,700 (2.6%) were called active. Inconclusive means that the source gave no clear call. Such entries were picked first, then a sample of the others. The call rests on the fitted dose curve; in most records, active means well fitted inhibition curve with a large enough effect; inconclusive means small, poorly fitted or top-dose-only effect; inactive means no such curve, though single readings can be large or run the other way. A potency beside an inconclusive call is a rough fit, not a confirmed value.

These compounds were tested against Lysine-specific demethylase 5B (Homo sapiens) (UniProt Q9UGL1) (assay: Primary screen for KDM5B Histone Demethylases FDH-coupled qHTS). Conditions: FDH-coupled NADH fluorescence (FDH is formaldehyde dehydrogenase); activity change, negative = inhibition: at 57.7 µM (top of the series) unless noted.
UniProt Q9UGL1, sequence (Q9UGL1 whole entry, looked up, the tested form may be a part): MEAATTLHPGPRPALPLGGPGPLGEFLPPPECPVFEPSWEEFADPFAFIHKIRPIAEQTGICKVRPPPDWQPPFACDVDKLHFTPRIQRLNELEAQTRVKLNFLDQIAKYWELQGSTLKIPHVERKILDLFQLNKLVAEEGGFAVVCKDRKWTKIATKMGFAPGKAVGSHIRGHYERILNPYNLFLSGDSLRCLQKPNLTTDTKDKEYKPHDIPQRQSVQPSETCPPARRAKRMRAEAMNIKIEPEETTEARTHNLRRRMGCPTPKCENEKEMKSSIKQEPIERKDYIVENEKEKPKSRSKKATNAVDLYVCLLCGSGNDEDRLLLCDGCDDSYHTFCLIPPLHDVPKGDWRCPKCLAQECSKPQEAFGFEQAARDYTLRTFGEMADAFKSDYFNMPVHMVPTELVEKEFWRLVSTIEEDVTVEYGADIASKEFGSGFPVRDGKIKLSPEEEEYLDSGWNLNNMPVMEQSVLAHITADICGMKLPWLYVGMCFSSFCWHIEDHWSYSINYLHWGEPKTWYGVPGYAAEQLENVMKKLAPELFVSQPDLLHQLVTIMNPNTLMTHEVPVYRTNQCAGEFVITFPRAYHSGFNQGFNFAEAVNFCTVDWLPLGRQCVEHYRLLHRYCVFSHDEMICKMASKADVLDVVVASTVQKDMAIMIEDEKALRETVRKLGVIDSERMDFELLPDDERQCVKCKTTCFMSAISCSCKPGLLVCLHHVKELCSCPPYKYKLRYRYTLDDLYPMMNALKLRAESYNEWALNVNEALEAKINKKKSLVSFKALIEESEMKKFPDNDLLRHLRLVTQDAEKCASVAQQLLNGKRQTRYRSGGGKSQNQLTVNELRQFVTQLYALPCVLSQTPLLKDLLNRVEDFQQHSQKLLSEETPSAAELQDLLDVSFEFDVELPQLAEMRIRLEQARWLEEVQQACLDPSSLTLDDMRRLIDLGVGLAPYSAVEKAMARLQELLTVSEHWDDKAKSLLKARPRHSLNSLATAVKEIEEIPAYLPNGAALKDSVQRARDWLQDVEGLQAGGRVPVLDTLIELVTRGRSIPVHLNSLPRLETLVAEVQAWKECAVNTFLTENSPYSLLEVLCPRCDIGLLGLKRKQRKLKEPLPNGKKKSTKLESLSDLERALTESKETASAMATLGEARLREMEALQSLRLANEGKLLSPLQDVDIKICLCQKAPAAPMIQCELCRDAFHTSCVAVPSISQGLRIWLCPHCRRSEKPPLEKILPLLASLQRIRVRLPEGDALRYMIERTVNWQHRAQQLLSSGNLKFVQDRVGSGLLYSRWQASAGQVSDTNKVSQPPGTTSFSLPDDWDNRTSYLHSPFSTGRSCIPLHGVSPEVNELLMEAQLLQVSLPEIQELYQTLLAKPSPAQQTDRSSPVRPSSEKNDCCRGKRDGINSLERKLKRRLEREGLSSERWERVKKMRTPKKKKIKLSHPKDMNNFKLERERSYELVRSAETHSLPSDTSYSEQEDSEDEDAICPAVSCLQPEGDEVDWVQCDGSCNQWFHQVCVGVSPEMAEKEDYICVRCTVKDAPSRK
Outline: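 Inhibition is measured as reduced NADH fluorescence generation from FDH coupling to formaldehyde release. Truncated KDM5BΔAP at 200 nM final acts on H3K4me3 peptide (12.5 µM in substrate mix) in pH 7.5 HEPES buffer with Tween-20, 30 min, room temperature.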
Further: nearly all actives have a fitted effect of over 70% in size.
Potency means the concentration at half of the fitted maximal effect; tags describe the fitted curve by direction and shape.
Wherever activity change, negative = inhibition is given: 0% is about no effect.

| Compound | Potency | activity change, negative = inhibition |
| --- | --- | --- |
| O=C(Nc1cccc(Cl)c1)Nc1ccccc1C(=O)O | inconclusive: 28.2 µM [inhibitor, partial curve, poor fit] |  |
| CC(=O)NC1(C)CCN(Cc2ccc(-c3ccc(Oc4ccccc4)cc3)cc2)C1 (centres undefined) | inconclusive: 35.5 µM [inhibitor, partial curve, poor fit] |  |
| C[N+](C)(CC(=O)c1ccccc1)Cc1ccccc1 |  | inactive: 14.6% |
| CCOC(=O)c1ccc(N2CCN(CC)CC2)c(NC(=O)COc2ccc(C(C)(C)C)cc2)c1 | inconclusive: 39.8 µM [inhibitor, single point] |  |
| Cc1ccc2c(Cl)cc(Cl)c(OCC(=O)NCC(F)(F)F)c2n1 |  | inactive: 12.6% |
| COc1cccc(C(=O)N(Cc2ccco2)c2c(N)n(Cc3ccccc3)c(=O)[nH]c2=O)c1 | inconclusive: 11.2 µM [inhibitor, partial curve, poor fit] |  |
| Cc1c(Cl)cccc1NC(=O)c1ccc2c(c1)N(S(C)(=O)=O)CC2 | inconclusive: 31.6 µM [inhibitor, single point] |  |
| CC(=O)COC(=O)c1ccccc1C(=O)c1ccc(C)c(C)c1 |  | inactive: 15.6% |
| CCOC(=O)c1ccc(-n2c(CN3CCN(CC)CC3)nc3ccc([N+](=O)[O-])cc3c2=O)cc1 | inconclusive: 22.4 µM [inhibitor, single point] |  |
| CC(C(=O)Nc1ccc(OC(F)F)c(Cl)c1)n1cccn1 (centres undefined) |  | inactive: 4.6% |
| N#Cc1ncn(Cc2coc(-c3ccccc3)n2)n1 |  | inactive: -10% |
| CC(=O)Nc1ccc(Nc2ncnc3c2c(-c2ccccc2)cn3-c2ccccc2)cc1 | inconclusive: 3.98 µM [inhibitor, full curve, poor fit] |  |
| Nc1nccnc1C(=O)NCCCNc1ccc(C(F)(F)F)cn1 |  | inactive: 194% |
| CSC1=N/C(=C\c2cccc(Cl)c2Cl)C(=O)S1 |  | inactive: -10.9% |
| CCOc1ccc(OCC)c(NC(=O)C2CCCN(S(=O)(=O)c3ccc4c(c3)oc(=O)n4C)C2)c1 (centres undefined) |  | inconclusive: -33.9% [inhibitor] |
| Cc1c(CCC(=O)NCCc2ccccc2F)c(=O)oc2c(C)c(O)ccc12 | inconclusive: 2 µM [inhibitor, full curve, poor fit] |  |
| COCCn1cc(C(=O)NC2CCCc3c2[nH]c2ccccc32)c2ccccc2c1=O (centres undefined) | inconclusive: 28.2 µM [inhibitor, partial curve, poor fit] |  |
| COc1ccc(C(=O)NNC(=O)CC2Sc3ccc(Cl)cc3NC2=O)cc1OC (centres undefined) |  | inactive: 30.5% |
| COc1ccc(CN2C[C@H]3CN(Cc4ccc5c(c4)OCCO5)CCN3C2=O)cc1 |  | inactive: 2.77% [at 86.2 µM] |
| NC(=O)NCCC(=O)N1CCc2[nH]nc(-c3cccc4ccccc34)c2C1 |  | inactive: -18.7% |
| Cc1cc(C)nc(/N=C2\NC(=O)CN2c2cc(Cl)cc(Cl)c2)n1 |  | inactive: 9.75% |
| COc1cc(NC(=O)Cn2c(=O)n(Cc3ccccc3OC)c(=O)c3cccnc32)cc(OC)c1 | inconclusive: 39.8 µM [inhibitor, single point] |  |
| C/C(=N\NC(=O)c1ccoc1C)c1cccc2ccccc12 | inconclusive: 39.8 µM [inhibitor, single point] |  |

| Compound | Potency | activity change, negative = inhibition |
| --- | --- | --- |
| COc1ccc(CN2CCOc3nc(-c4cccc(N(C)C)c4)ncc3C2=O)cc1 | inconclusive: 28.2 µM [inhibitor, single point] |  |
| O=C(NC1CC1)C1CCCN(c2nc3ncccc3o2)C1 (centres undefined) | active: 35.5 µM |  |
| Cc1cc(C(=O)NCC(=O)N2CCCCCNC(=O)CC2c2ccccc2)n(C)n1 (centres undefined) |  | inactive: 26.6% |
| COc1cccc(NC(=O)C2(C)CCc3cnc(N4CCOCC4)nc32)c1 (centres undefined) | active: 28.2 µM |  |
| Cc1ccc(-c2cn3ccccc3n2)cc1C | inconclusive: 22.4 µM [inhibitor, partial curve, poor fit] |  |
| CCc1ccc(CN(Cc2ccco2)C(=O)c2ccccc2Cl)cc1 | inconclusive: 25.1 µM [inhibitor, partial curve, poor fit] |  |
| CS(=O)(=O)CC(O)c1cc2n(n1)CCN(Cc1ccc(Cl)s1)C2 (centres undefined) |  | inactive: -18.5% |
| COc1ccc(-c2nc(C)c(CCNC(=O)C(=O)Nc3cccc(F)c3)s2)cc1OC | inconclusive: 22.4 µM [inhibitor, single point] |  |
| O=C(Nc1nc(-c2c[nH]c3ccccc23)cs1)C1CCC1 | inconclusive: 10 µM [inhibitor, partial curve, poor fit] |  |
| Cc1ccc(SCCNC(=S)Nc2cccc(Cl)c2C)cc1 |  | inactive: -9.48% |
| CCOC(=O)c1sc2ccccc2c1S(=O)(=O)Nc1ccc(N(C)C)cc1 | inconclusive: 35.5 µM [inhibitor, single point] |  |
| CCc1cccc2c(C(CC(=O)NCCC(C)C)c3cccc(OC)c3OC)c[nH]c12 (centres undefined) | inconclusive: 35.5 µM [inhibitor, single point] |  |
| O=C(Nc1ccc(F)cc1)c1nn(-c2ccc(F)cc2)c2c1CCC2 | inconclusive: 25.1 µM [inhibitor, single point] |  |
| O=C1CC2(CCN(Cc3cccc(OCc4ccccc4Cl)c3)CC2)CN1 | inconclusive: 35.5 µM [inhibitor, partial curve, poor fit] |  |
| O=C(Cc1ccc(Cl)cc1)NC1CCN(c2cc(-c3ccc(F)cc3)[nH]n2)C1 (centres undefined) | inconclusive: 8.91 µM [inhibitor, partial curve, poor fit] |  |
| O=C1CCCN1CCCN1C(=O)[C@@H]2C[C@@H](O)CN2C2(CN(C3Cc4ccccc4C3)C2)C1=O |  | inactive: 13.1% |
| COc1ccccc1Cn1ccnc1SCC(=O)Nc1ccc(C(C)=O)cc1 |  | inactive: 14.7% |
| CC(C)(C)C(=O)Nc1cccc(CN2CCSCC2)c1 |  | inactive: 23.4% |
| COC(=O)c1cc(NC(=O)CCc2c(C)nc3c4c(C)cc(C)nc4nn3c2C)cc(C(=O)OC)c1 | inconclusive: 28.2 µM [inhibitor, partial curve, poor fit] |  |
| CC1CCCN(c2ccc3nncn3n2)C1 (centres undefined) | inconclusive: 1.78 µM [inhibitor, partial curve, poor fit] |  |
| COc1ccccc1CCNC(=O)c1ccc2c(c1)c(C)c(C)n2C | inconclusive: 28.2 µM [inhibitor, single point] |  |
| CCc1ccc(NCc2cc3cc4c(cc3n(CC(=O)Nc3ccc(Cl)cc3)c2=O)OCO4)cc1 | inconclusive: 10 µM [inhibitor, partial curve, poor fit] |  |
| COc1ccc(NC(=O)CSc2ncc(-c3ccc(Cl)cc3)[nH]2)cc1OC | inconclusive: 11.2 µM [inhibitor, partial curve, poor fit] |  |

| Compound | Potency | activity change, negative = inhibition |
| --- | --- | --- |
| O=C(CCc1ccc2c(c1)CN(C(=O)C1CC1)CCO2)NCc1cc(F)cc(F)c1 |  | inactive: -5.87% |
| CN1c2cc(C(=O)Nc3ccc(S(N)(=O)=O)cc3)ccc2C(=O)N2CCCCC21 (centres undefined) | inconclusive: 35.5 µM [inhibitor, partial curve, poor fit] |  |
| O=C(Nc1cccc2ccccc12)O[C@@H]1CO[C@H]2[C@@H]1OC[C@@H]2n1nnnc1Sc1ccccc1 | inconclusive: 35.5 µM [inhibitor, single point] |  |
| COc1ccc(-n2c(=O)c3ccccc3n(CC(=O)Nc3cccc(OC)c3)c2=O)cc1 |  | inactive: 13% |
| COc1ccccc1-c1ccc2c(n1)CN(Cc1csc(C)n1)C(=O)CO2 | inconclusive: 25.1 µM [inhibitor, partial curve] |  |
| CCOCCc1nnc(NC(=O)CCS(=O)(=O)c2ccccc2)s1 | inconclusive: 22.4 µM [inhibitor, partial curve, poor fit] |  |
| CN(c1ccccc1)c1cc(=O)c2ccnc(N3CCN(c4ccccn4)CC3)c2o1 |  | inactive: -35.2% [at 86.2 µM] |
| CC1(C)CC2(CCO1)OC(=O)CC2C(=O)Nc1ccc(Br)cc1 (centres undefined) |  | inactive: 25.6% |
| CCC(=O)N1CCN(c2nc3c(s2)CC(C(=O)Nc2cccc(C)c2C)CC3)CC1 (centres undefined) |  | inactive: 9.42% |
| COc1ccc(S(=O)(=O)Nc2nc3ccccc3nc2NCc2ccccc2OC)cc1 | inconclusive: 28.2 µM [inhibitor, partial curve, poor fit] |  |
| Cn1c(=O)c2c(n3c4ccccc4nc13)NC(=O)CC2c1ccccc1F (centres undefined) | inconclusive: 12.6 µM [inhibitor, partial curve, poor fit] |  |
| COc1ccc2c(COC(=O)c3ccccc3OC)cc(=O)oc2c1 | inconclusive: 39.8 µM [inhibitor, partial curve, poor fit] |  |
| CCc1nc2c(c(-c3ccc(OC)cc3)n1)CCN(CC1CC1)CC2 | inconclusive: 56.2 µM [inhibitor, partial curve] |  |
| Cc1ccc(SC(C)C(=O)NC(C)(C#N)C(C)C)cc1C (centres undefined) |  | inactive: 10.6% |
| Cc1[nH]c(=S)c(C#N)c(-c2ccccc2)c1C(=O)Nc1ccccc1 | inconclusive: 31.6 µM [inhibitor, partial curve, poor fit] |  |
| COc1ccccc1-n1cc(-c2ccnc(N3CC(n4cccn4)C3)n2)cn1 | active: 31.6 µM |  |
| Brc1csc(CN2CCc3nc(Nc4ccccc4)ncc3C2)c1 | inconclusive: 17.8 µM [inhibitor, partial curve, poor fit] |  |
| N#Cc1cccc(NC(=O)CNc2ccccc2C(N)=O)c1 | inconclusive: 22.4 µM [inhibitor, partial curve, poor fit] |  |
| COCCc1noc(C2Cc3ccccc3N2C(=O)Nc2ccc(C)cc2C)n1 (centres undefined) | inconclusive: 28.2 µM [inhibitor, single point] |  |
| O=C(c1cccc(Cl)c1)n1nc(-c2ccco2)nc1NCc1cccs1 | inconclusive: 28.2 µM [inhibitor, single point] |  |
| CN(C(=O)c1ccc(NC(=O)C2CC2)cc1)C1CCCCC1 |  | inactive: 20.2% |
| COc1ccc2[nH]c(CO)cc2c1 |  | inactive: -10.3% |
| COc1cc(NC(=O)Cn2c(SCc3ccc(F)cc3)nc3cccnc32)cc(OC)c1 | inconclusive: 35.5 µM [inhibitor, partial curve, poor fit] |  |
